The whole screen tested about 420,000 compounds, of which about 64,000 (15%) were called active. The inconclusive results got no clear call from the source; some entries with a clear call stand among them for comparison. Calls come from the whole dose curve; as a rule, active = well fitted inhibition curve with a large enough effect; inconclusive = small, poorly fitted or top-dose-only effect; inactive = flat fitted curve, though single readings scatter. Potencies of inconclusive entries are left out as doubtful fits.
Assay: qHTS for Inhibitors of human tyrosyl-DNA phosphodiesterase 1 (TDP1): qHTS in cells in absence of CPT; note: nearly all actives have a fitted effect of over 55% in size
Details: DT40 Tdp1-/- hTDP1 cells, no CPT, ATP luminescence, 48 h; activity change, negative = growth inhibition: at 46.2 µM (top of the series) unless noted
Summary of the method: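 DT40 Tdp1-/-;hTDP1 cells, no CPT (DMSO vehicle only), 400 cells/well; compounds pin-transferred; ≥48 hr, 37 °C; CellTiter-Glo 30 min RT dark, luminescence read.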
% is set by controls: 0 for no effect and ±100 for the full control effect; potency is the fitted concentration of half-maximal effect; tags give direction and shape of the fitted curve.

Compound	Potency	activity change, negative = growth inhibition
COC(=O)[C@]12CCCCC=C1N(Cc1ccco1)C(=O)[C@H](CC(=O)NCc1ccc(C)o1)C2	inconclusive [inhibitor, single point]	–
Cc1ccc2nc(-c3sc4nc(C)ccc4c3N)[nH]c2c1	inconclusive [inhibitor, partial curve]	–
Cc1ccc(CNC(=O)CN2C(=O)NC(C)(c3ccc(Cl)cc3)C2=O)cc1 (centres undefined)	inactive	–
CC(=O)NCCNc1nc(-c2c(C)noc2C)nc2ccccc12	inactive	–
Cc1ccc(OCCCCn2cnc3ccccc32)c(C)c1	active: 8.2 µM	–
Cc1ccc(CN(C(=O)COc2ccc(Br)cc2)C2CCS(=O)(=O)C2)o1 (centres undefined)	inactive	–
CCOc1ccc(S(=O)(=O)/N=C(/c2ccccc2)N(C)C)cc1	inactive	–
O=S1(=O)CCN(Cc2ccccc2)CC1	inactive	–
COc1ccc(-c2c3c(=O)n(C)c(=O)n(C)c3cn2C2CCCCC2)cc1	inconclusive [inhibitor, single point]	–
COc1ccc(CCNC(=O)C2CCCN(S(=O)(=O)c3cc(C)ccc3OC)C2)cc1OC (centres undefined)	inconclusive [inhibitor, single point]	–
COC(=O)c1ccccc1NC(=O)c1ccc(-c2ccc(Br)cc2)o1	active: 1.64 µM	–
CCN(Cc1ccccc1)S(=O)(=O)c1cc(C(=O)NC2CCCCCC2)ccc1OC	inconclusive [inhibitor, single point]	–
O=C(CSc1ncn[nH]1)Nc1ccc(Cl)c(S(=O)(=O)N2CCOCC2)c1	inactive	–
CCC(C)/C(C)=N/NC(=O)CNS(=O)(=O)c1ccc([N+](=O)[O-])cc1 (centres undefined)	inactive	–
CCc1ccc(CN2CCCC(CNS(=O)(=O)c3ccc(OC)cc3)C2)cc1 (centres undefined)	inconclusive [inhibitor, partial curve, poor fit]	–
Cc1ccc(NC(=O)c2cc([N+](=O)[O-])ccc2Cl)c(O)c1	inactive	–
Cc1ccccc1NC(=O)CON=C(N)c1ccccc1	inactive	–
NC(=O)c1c(NC(=O)c2cnccn2)sc2c1CCCC2	inactive	–
COc1ccc(-c2ccc3c(c2)c(-c2cccs2)c(-c2cc(OC)cc(OC)c2)n3C)cc1	active: 23.1 µM	–
CS(=O)(=O)c1ccc(C(=O)Nc2cc(-c3ccccc3)nn2-c2ccccc2)cc1	inconclusive [inhibitor, single point]	–
Nc1cccnc1S(=O)(=O)c1cccc(C(F)(F)F)c1	inconclusive [inhibitor, single point]	–
CC(=O)Nc1ccc(S(=O)(=O)NCCSCc2cccc(Cl)c2)cc1	inconclusive [inhibitor, single point]	–
CCOc1ccc(CN2CCC(Cc3ccccc3)CC2)cc1	inconclusive [inhibitor, single point]	–
CC(C)n1nccc1N(Cc1ccc(Cl)cc1)S(=O)(=O)c1ccccc1	inconclusive [inhibitor, single point]	–
COc1ccccc1OCCNC(=O)c1ccc2c(c1)CCC2	inconclusive [inhibitor, single point]	–

Compound	Potency	activity change, negative = growth inhibition
Cc1ccc2nc(SCC(=O)N3N=C(c4cccs4)CC3c3ccc(F)cc3)nc(=O)n2c1 (centres undefined)	inconclusive [inhibitor, single point]	–
COc1ccc(Br)cc1S(=O)(=O)N1CCCc2ccccc21	–	inconclusive: -30.8% [inhibitor]
O=P(O)(O)OCC(O)CO (centres undefined)	inactive	–
O=C(Nc1ccc(N2CCCCC2)c(Cl)c1)c1cccnc1	inconclusive [inhibitor, partial curve]	–
O=C(/C=C/c1cccs1)Nc1ccc(N2CCOCC2)c(S(=O)(=O)Nc2ccccc2Cl)c1	active: 23.1 µM	–
COc1ccc(CN2CC(=O)N(c3ccc(C)c(C)c3)C2=S)cc1OC	inconclusive [inhibitor, single point]	–
Cc1ccc(N=C(NOCc2ccc(Cl)cc2Cl)c2nonc2N)c(C)c1	inconclusive [inhibitor, partial curve]	–
C#CC(C)(CC)NC(=O)c1cc2cccc(CC=C)c2oc1=O (centres undefined)	inconclusive [inhibitor, single point]	–
COCCOC1CCN(C(=O)C2CCC(=O)N(CCc3ccc(OC)cc3)C2)CC1 (centres undefined)	inactive	–
NCC1CCCCC1CC(=O)O (centres undefined)	inactive	–
Cc1ccc(N(C)C(=O)C2CCN(S(=O)(=O)c3c(C)noc3/C=C/c3c(C)cc(C)cc3C)CC2)cc1	active: 20.6 µM	–
CCOC(=O)c1cc(NC(=O)c2ccoc2C)cc(C(=O)OCC)c1	inconclusive [inhibitor, single point]	–
COc1cc(CN2CCN(Cc3ccc(C(F)(F)F)cc3)CC2)cc(OC)c1OC	active: 20.6 µM	–
O=Nc1c2ccc[nH]c-2c2ccc([N+](=O)[O-])cc12	inconclusive [inhibitor, partial curve]	–
COc1ccc(C(=O)NC(=S)Nc2ccccc2[N+](=O)[O-])cc1OC	inactive	–
O=C(O)CSc1nnc(-c2ccncc2)n1Cc1ccccc1	inactive	–
CC(C)(C)C(=O)N=C1SC2CS(=O)(=O)CC2N1c1ccc2c(c1)OCO2 (centres undefined)	inactive	–
CC(=O)N1c2ccc(S(=O)(=O)N3CCCCC3)cc2CC1C(=O)NCc1ccccc1C (centres undefined)	inactive	–
C[C@@H]1CCCCO[C@H](CN(C)C(=O)Cc2ccccc2)[C@@H](C)CN([C@H](C)CO)C(=O)c2cc(NC(=O)Nc3ccccc3)ccc2O1	active: 29.1 µM	–
Cc1ccc(-c2nc3ncccc3o2)cc1NC(=O)Cc1ccc(Cl)cc1	inactive	–
COc1ccccc1CN(C)C[C@@H]1OCc2cnnn2CCCC(=O)N([C@H](C)CO)C[C@H]1C	–	inconclusive: -31.9% [inhibitor]
O=C(c1cc(-c2ccco2)on1)N1CCN(C(c2ccccc2)c2ccccc2)CC1	active: 15.8 µM	–
O=C(NCCNC(=O)c1ccccc1O)c1ccccc1O	inactive	–
O=C(Nc1ncc(Cc2cccc(Cl)c2Cl)s1)C1CCCO1 (centres undefined)	inconclusive [inhibitor, partial curve, poor fit]	–
CCOC(=O)c1ccc(NC(=S)N2CCCC(C(=O)OCC)C2)cc1 (centres undefined)	inconclusive [inhibitor, single point]	–

Compound	Potency	activity change, negative = growth inhibition
OCCNc1cc(-n2nc(-c3ccccc3)cc2-c2ccccc2)ncn1	inconclusive [inhibitor, partial curve]	–
CC1Cc2ccccc2N1C(=O)COC(=O)C1(c2ccccc2F)CCCC1 (centres undefined)	inconclusive [inhibitor, single point]	–
CC1CC(C)CN(S(=O)(=O)c2cccc3nsnc23)C1 (centres undefined)	inconclusive [inhibitor, single point]	–
Cn1c(CCN2CCCCC2)nc2cc([N+](=O)[O-])ccc21	inconclusive [inhibitor, partial curve]	–
O=C(O)c1ccccc1C(=O)c1ccc2oc(=O)[nH]c2c1	inactive	–
CC(C)c1ccc(N2C(=O)C3C4C=CC(CC4)C3C2=O)cc1 (centres undefined)	inconclusive [inhibitor, single point]	–
O=C(Nc1ccc(SC(F)(F)F)cc1)c1ccccn1	inconclusive [inhibitor, single point]	–
COc1ccccc1C(=O)Nc1cc2c(cc1N1CCCC1)n(C)c(=O)c(=O)n2C	inconclusive [inhibitor, partial curve]	–
O=C(/C=C/c1ccccc1[N+](=O)[O-])NC1CCCC1	inactive	–
CCN(CC)C(=O)C1=C(C)N(Cc2ccc(C(C)(C)C)cc2)C(=O)C(CC(=O)NCCN2CCOCC2)C1 (centres undefined)	inactive	–
Cn1cc(/C=C/C(=O)c2ccccc2)c2ccccc21	inconclusive [inhibitor, single point]	–
CN(C)c1ccc(CNc2ccccn2)cc1	inconclusive [inhibitor, full curve]	–
Cc1cc2cc(CN(Cc3cccs3)C(=S)NCC3CCCO3)c(=O)[nH]c2cc1C (centres undefined)	inconclusive [inhibitor, single point]	–
O=C(CCSc1ccccc1)Nc1ncccn1	inactive	–
Cc1nc2ccccn2c1C(=O)CSc1cccc(Cl)c1	inconclusive [inhibitor, single point]	–
CCN(CC)C(=O)Cn1nnc2sc(-c3ccccc3)cc2c1=O	inconclusive [inhibitor, single point]	–
COc1cc2c(cc1OC)C(COc1ccc3c(C)cc(=O)oc3c1)N(C(=O)c1cc(Cl)ccc1OC)CC2 (centres undefined)	inconclusive [inhibitor, full curve, poor fit]	–
CCC(=O)N1c2ccc(S(=O)(=O)NCc3ccc(F)cc3)cc2CC1C (centres undefined)	active: 11.6 µM	–
CCCCc1c(-c2ccccc2OC)ncn1Cc1ccc(-c2ccccc2)cc1	active: 20.6 µM	–
CCc1ccc(N2C=C(C(=O)OC)C(c3cccc4ccccc34)C(C#N)=C2N)cc1 (centres undefined)	active: 8.2 µM	–
CC(C)n1cc(/C=C2\NC(=O)N(c3cccc(Cl)c3)C2=O)c2ccccc21	inconclusive [inhibitor, single point]	–
Cc1cc(Br)c2[nH]cc(CCNC(=O)c3ccco3)c2c1	inconclusive [inhibitor, partial curve]	–
Cc1ccc(CN2CCSc3ccc(C(=O)NCC(C)c4ccccc4)cc32)cc1 (centres undefined)	active: 23.1 µM	–
CCOCCCn1c(=N)c(C(=O)NCCN2CCOCC2)cc2c(=O)n3cccc(C)c3nc21	inconclusive [inhibitor, single point]	–

— PubChem BioAssay AID686978 (National Center for Advancing Translational Sciences (NCATS), 2013)
